Laboratory results taken from article PMC7999658, “Characterization of P-Glycoprotein Inhibitors for Evaluating the Effect of P-Glycoprotein on the Intestinal Absorption of Drugs” (Pharmaceutics, 2021).
Read-outs that look alike come from different tables or passages of the source.

Columns and labels:
P-gp [1] = molecular target: T1, P-gp (Homo sapiens, UniProt P08183); assay: Inhibition of P-gp-mediated transport of paclitaxel across Caco-2 cell monolayers; format: cell-based; conditions: Caco-2 monolayers
T1 construct: host or cells: Caco-2
T1 sequence (P08183 whole entry): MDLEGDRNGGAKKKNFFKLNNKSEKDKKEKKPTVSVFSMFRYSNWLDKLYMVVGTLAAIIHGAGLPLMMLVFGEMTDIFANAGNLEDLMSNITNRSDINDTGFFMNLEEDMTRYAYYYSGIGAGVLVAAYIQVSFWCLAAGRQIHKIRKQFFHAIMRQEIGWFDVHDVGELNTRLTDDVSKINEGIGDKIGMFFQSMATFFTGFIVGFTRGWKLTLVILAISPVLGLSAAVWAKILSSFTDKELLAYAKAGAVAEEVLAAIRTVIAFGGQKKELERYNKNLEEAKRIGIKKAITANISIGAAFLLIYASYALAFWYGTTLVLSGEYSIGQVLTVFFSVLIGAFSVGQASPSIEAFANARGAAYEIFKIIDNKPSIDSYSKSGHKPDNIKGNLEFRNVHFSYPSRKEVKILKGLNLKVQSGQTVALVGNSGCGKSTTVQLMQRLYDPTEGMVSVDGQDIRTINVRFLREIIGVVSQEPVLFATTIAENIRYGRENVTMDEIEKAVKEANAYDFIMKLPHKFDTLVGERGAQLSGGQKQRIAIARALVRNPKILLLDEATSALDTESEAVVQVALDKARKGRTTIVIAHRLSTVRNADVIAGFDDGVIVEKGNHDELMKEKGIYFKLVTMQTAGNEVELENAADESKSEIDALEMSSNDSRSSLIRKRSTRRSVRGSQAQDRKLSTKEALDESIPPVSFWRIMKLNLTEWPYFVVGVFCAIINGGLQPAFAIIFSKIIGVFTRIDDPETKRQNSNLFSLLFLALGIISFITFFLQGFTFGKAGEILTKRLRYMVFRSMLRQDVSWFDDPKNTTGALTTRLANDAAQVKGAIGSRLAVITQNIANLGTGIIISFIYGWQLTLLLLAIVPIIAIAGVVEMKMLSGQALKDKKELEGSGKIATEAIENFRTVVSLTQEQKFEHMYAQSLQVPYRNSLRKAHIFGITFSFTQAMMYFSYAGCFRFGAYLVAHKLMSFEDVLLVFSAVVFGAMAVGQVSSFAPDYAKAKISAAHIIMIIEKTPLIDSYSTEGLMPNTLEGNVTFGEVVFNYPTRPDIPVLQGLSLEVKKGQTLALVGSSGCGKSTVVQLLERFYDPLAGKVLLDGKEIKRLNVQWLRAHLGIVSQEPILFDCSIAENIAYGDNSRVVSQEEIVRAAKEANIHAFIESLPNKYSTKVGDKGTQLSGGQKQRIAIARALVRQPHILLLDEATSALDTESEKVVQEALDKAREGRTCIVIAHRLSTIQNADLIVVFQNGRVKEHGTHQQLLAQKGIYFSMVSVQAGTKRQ

P-gp [2] = molecular target: T2, P-gp (Mus musculus, UniProt P21447); assay: Effect of WK-X-34 or LY335979 pretreatment on pharmacokinetics of oral paclitaxel in WT mice (P-S difference method); format: in vivo; conditions: WK-X-34 40 mg/kg po, paclitaxel 20 mg/kg po
T2 construct: the intestinal absorption of paclitaxel is restricted by P-gp expressed in the intestinal epithelium; tissue Taconic Farms; host or cells: small intestine of living male WT FVB mice (in vivo)
T2 sequence (P21447 whole entry): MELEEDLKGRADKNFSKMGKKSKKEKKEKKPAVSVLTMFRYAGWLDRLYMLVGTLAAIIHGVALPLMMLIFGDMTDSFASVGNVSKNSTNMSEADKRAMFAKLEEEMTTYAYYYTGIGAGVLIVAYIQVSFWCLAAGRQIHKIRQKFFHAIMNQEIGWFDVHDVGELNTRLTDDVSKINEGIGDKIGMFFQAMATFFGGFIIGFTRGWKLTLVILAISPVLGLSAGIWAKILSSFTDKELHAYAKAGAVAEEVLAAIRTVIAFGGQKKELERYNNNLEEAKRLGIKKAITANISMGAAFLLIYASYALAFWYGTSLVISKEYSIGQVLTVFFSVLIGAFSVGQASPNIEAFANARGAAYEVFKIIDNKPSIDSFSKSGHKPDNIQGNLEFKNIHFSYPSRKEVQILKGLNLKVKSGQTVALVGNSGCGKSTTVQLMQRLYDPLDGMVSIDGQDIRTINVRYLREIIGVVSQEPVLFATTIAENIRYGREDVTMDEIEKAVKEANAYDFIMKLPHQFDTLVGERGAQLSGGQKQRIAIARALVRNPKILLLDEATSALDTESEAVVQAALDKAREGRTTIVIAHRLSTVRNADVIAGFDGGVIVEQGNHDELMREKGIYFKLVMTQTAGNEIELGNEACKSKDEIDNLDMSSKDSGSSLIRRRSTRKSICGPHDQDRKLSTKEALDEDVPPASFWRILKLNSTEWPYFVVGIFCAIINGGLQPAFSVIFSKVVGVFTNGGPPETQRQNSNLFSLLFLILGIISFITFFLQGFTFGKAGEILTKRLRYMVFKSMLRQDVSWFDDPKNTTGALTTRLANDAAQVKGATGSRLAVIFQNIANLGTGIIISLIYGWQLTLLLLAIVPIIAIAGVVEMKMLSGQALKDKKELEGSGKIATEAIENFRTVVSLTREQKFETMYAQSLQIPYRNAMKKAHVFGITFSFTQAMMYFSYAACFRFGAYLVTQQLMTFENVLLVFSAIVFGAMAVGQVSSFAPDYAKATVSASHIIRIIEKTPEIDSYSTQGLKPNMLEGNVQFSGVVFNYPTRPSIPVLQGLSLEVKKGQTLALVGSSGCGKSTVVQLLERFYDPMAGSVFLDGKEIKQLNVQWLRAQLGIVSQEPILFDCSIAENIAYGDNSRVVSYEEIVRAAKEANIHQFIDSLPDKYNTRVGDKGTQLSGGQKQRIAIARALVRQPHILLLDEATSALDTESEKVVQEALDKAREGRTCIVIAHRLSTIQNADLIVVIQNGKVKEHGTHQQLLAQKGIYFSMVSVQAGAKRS
Procedure: Food and water were available ad libitum.
Mean residence time (MRT), total body clearance (CLtot), and distribution volume at the steady state (Vdss) were calculated using the following equations:MRT = AUMC/AUC(8) CLtot = Dose/AUC(9) Vdss = MRT × CLtot(10)

BCRP [3] = molecular target: T3, BCRP (Homo sapiens, UniProt Q9UNQ0); design: host or cells: Caco-2; method as in PMID 32193356; conditions: Caco-2 monolayers; mitoxantrone; 50% decrease of Papp,BA; cited from earlier work
T3 sequence (Q9UNQ0 1-655): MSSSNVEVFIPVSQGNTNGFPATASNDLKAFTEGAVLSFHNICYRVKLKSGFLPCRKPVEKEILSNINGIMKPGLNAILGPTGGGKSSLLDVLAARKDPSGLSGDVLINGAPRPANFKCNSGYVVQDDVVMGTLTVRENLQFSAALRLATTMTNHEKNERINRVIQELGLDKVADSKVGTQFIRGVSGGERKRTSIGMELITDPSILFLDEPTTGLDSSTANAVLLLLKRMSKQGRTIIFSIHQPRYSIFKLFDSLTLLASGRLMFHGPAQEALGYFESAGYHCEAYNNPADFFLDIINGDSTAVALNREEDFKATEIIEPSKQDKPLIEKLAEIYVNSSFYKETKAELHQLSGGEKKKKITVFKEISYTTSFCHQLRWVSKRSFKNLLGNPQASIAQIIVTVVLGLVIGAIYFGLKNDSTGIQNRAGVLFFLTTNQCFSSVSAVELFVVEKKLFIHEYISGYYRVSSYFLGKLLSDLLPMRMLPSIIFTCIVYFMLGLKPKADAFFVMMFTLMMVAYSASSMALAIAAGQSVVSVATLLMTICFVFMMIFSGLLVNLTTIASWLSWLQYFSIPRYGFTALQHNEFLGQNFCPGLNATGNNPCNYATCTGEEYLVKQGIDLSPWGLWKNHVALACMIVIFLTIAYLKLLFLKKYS

P-gp [4] = molecular target: T1, P-gp; design: method as in PMID 32193356; conditions: Caco-2 monolayers; paclitaxel; 50% decrease of Papp,BA; cited from earlier work
BCRP [5] = molecular target: T3, BCRP; assay: Inhibition of BCRP-mediated transport of mitoxantrone across Caco-2 cell monolayers

For `COc1ccc(C(=O)Nc2ccccc2C(=O)Nc2ccc(CCN3CCc4cc(OC)c(OC)cc4C3)cc2)cc1OC` [WK-X-34, N-(2-(4-[2-(6,7-Dimethoxy-3,4-dihydro-1H-isochinolin-2-yl)-ethyl]phenylcarbamoyl)phenyl)-3,4-dimethoxybenzamide], the “Hill coefficient, ER of paclitaxel” value (P-gp [1]) was 2.07 ± 1.22, the IC50 (P-gp [1]; 50% decrease of efflux ratio, read-out: IC50 on ER of paclitaxel) was 214 ± 113 nM and the IC50 (P-gp [1]; paclitaxel 5 μM, inhibitor concentration to achieve 50% increase of Papp,AB, read-out: IC50 on Papp,AB of paclitaxel) was 935 ± 33 nM. For the same molecule, the “AUCsys of paclitaxel, pretreated WT mice versus non-treated mdr1a/1b KO mice” value (P-gp [2]) was “approximately three”, the “FaFg of paclitaxel, pretreated WT mice relative to non-treated mdr1a/1b KO mice” value (P-gp [2]; in words) was “only half as high” and the IC50 (BCRP [3]) was 370 ± 38 nM. For the same molecule, the IC50 (P-gp [4]) was 501 ± 132 nM, the IC50 (BCRP [5]) was 328 ± 96 nM and the “Hill coefficient, ER of mitoxantrone” value (BCRP [5]; Caco-2 monolayers) was 1.51 ± 0.41.
